Several values for one entry are separate records, joined by “and”; a condition that tells them apart may be missing. Identical values can stand only once.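 Values below derive from 48-hour exposures of cells grown in 96-well plates, with endpoints linearly interpolated between the two concentrations bracketing the appropriate inhibition level. Here, GI50 denotes the concentration required for 50% inhibition of growth. TGI is the concentration that stops growth completely.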
What follows are molecules tested on NCI-H322M lung (assay: growth of human tumour cells (NCI), 48 h).

| Structure (SMILES) | TGI | GI50 |
| --- | --- | --- |
| COc1ccc(/C=C/C(C(=O)O)C(=O)O)cc1 | > 100 µM |  |
| CCc1cc2c(oc3c4ccccc4ccc23)c(=O)[nH]1 | > 10 µM |  |
| Cc1ccccc1NC(=O)c1sc2nc3c(cc2c1N)C(=O)CCC3 | > 100 µM | 5.12 µM |
| COc1ccc(Nc2c[nH]c(=O)[nH]c2=O)cc1 | > 100 µM |  |
| CCCN(CCC)c1c([N+](=O)[O-])cc(C(=O)N(C)C)cc1[N+](=O)[O-] | > 100 µM |  |
| N#CI1OC(C(F)(F)F)(C(F)(F)F)c2ccccc21 | > 100 µM |  |
| CCc1cccc(C(C)CC)c1NC(=O)CC1C(=O)Nc2ccccc2S1=O (stereo unspecified) | > 100 µM |  |
| CCOC(=O)O/N=C1/C(c2c(O)[nH]c3ccccc23)=Nc2ccccc21 | 21.9 µM |  |
| COc1ccc2c(c1)C(=O)c1c-2n(CCCCl)c(=O)c2cc(N(C)C)ccc12 | > 100 µM | > 100 µM |
| Cc1nc(N)nc(N)c1N1CCN(Cc2ccccc2)CC1 | > 100 µM |  |
| Cn1cnc([N+](=O)[O-])c1Sc1nnc(C(F)(F)F)n1C | > 100 µM |  |
| O=C1c2ccccc2C2(O)Oc3cccc(O)c3C12O (stereo unspecified) | > 100 µM |  |
| Oc1ccccc1C=Nc1ccccc1N=Cc1ccccc1O | > 100 µM |  |
| CCCCc1nc2cc(/C=C/C(=O)NO)ccc2n1CCN(CC)CC | 3.35 µM | 0.281 µM |
| CC1(C)CC[C@]2(C(=O)O)CC[C@]3(C)[C@H](CC[C@@H]4[C@@]5(C)CCC(=O)C(C)(C)[C@@H]5CC[C@]43C)[C@H]2[C@H]1OC(=O)C(F)(F)F | 39.4 µM | 17.8 µM |
| CC1=CC(=O)/C(=C/N2CCNC2=S)C(=O)O1 | > 100 µM |  |
| CCOC(=O)CCC(NC(=O)c1ccc(NCc2ccc3nc(-c4ccccc4)c(Cl)nc3c2)c2ccccc12)C(=O)OCC (stereo unspecified) | > 100 µM |  |
| c1cn[nH]c1 | > 10 µM |  |
| C1C[OH+]CC[OH+]CC[OH+]CC[OH+]CC[OH+]CC[OH+]1.[Cl-].[Ta+5] | > 100 µM | > 100 µM |
| COc1ccc(Cn2cc(Cn3c(=O)c(-c4nc5ccccc5[nH]4)cc4ccccc43)nn2)c(OC)c1OC | > 100 µM | 0.404 µM |
| Cc1[nH]c(=O)[nH]c(=O)c1C(=O)N(CCO)Cc1ccccc1 | > 100 µM |  |
| CN1CCN(c2c(O)c3c(c(O)c2Cl)C(=O)C=CC3=O)CC1 | 3.19 µM |  |
| C=CCNc1cccc2c1C(=O)c1ccccc1C2(O)CC=C (stereo unspecified) | 71.9 µM | 33.3 µM |
| Cc1nc2sccn2c1C(=O)OCCOCCOCCOCCOC(=O)c1c(C)nc2sccn12 | > 100 µM |  |
| COC1=CCC2=C(CCN(C(=O)C3CCC3)C2Cc2ccc(OC)c(O)c2)C1 (stereo unspecified) | > 100 µM |  |

| Structure (SMILES) | TGI | GI50 |
| --- | --- | --- |
| CCOC(=O)C1(C(=O)OCC)CC=C(C)CC12C(=O)Nc1ccccc12 (stereo unspecified) | > 100 µM |  |
| COc1ccc(-c2c(C#N)c(N)nc3c2CCCc2ccc(F)cc2-3)cc1OC | 62.5 µM | 0.0535 µM |
| C=CCNC(=S)OCCCCCCCCCC | 81.4 µM |  |
| O=Cc1cc(O)c(O)c(/C=N/n2c3ccccc3c3ccccc32)c1 | 40.2 µM |  |
| OC(C(=Nc1ccccc1)c1ccccc1)c1ccccc1 (stereo unspecified) | 50.1 µM |  |
| CC(=O)C(C(=O)C(C)(C)C)C(=O)C(C)(C)C | > 100 µM |  |
| CN1CCN(c2cc(Nc3cc(C4CC4)[nH]n3)nc(Nc3ccc(CC(=O)NCc4cccc(F)c4)cc3)n2)CC1 | 14.4 µM | 1.58 µM |
| O=C(O)C(CO)NC(=O)C1C(C(=O)O)C(c2ccccc2[N+](=O)[O-])C=C(c2ccco2)N1c1ccncc1 (stereo unspecified) | 23.5 µM |  |
| CC1=N/C(=C\c2cccc3ccccc23)C(=O)O1 | > 100 µM |  |
| COc1cc([C@@H]2c3cc4c(cc3[C@@H](Nc3ccc(NC(=O)c5cc(NC(=O)c6cc([N+](=O)[O-])cn6C)cn5C)cc3)[C@H]3COC(=O)[C@H]23)OCO4)cc(OC)c1O | > 61.5 µM |  |
| O=C(c1ccccc1)n1[nH]c(=O)n(-c2ccc(Cl)cc2)c1=O | > 100 µM |  |
| C/C(=C/c1c(C)[nH]c(=O)[nH]c1=O)C(=O)O | > 1380 µM |  |
| C1=C[C@]2(CCC13OCCO3)COc1ccccc12 | > 100 µM |  |
| CC(C)(CCC(C)(C)c1ccccc1)c1ccccc1 | 45 µM |  |
| Cc1nn(C)c(=O)c2nn(-c3ccccc3)c(C)c12 | > 100 µM |  |
| O=C(NNCc1ccccc1O)c1ccccc1O | > 100 µM |  |
| CC(C)(C)c1nnc2n(c1=O)N=CC(c1ccc(Br)cc1)S2 (stereo unspecified) | > 100 µM | 47.5 µM |
| COC(=O)c1ccccc1N=Cc1ccc(N(CCC#N)S(=O)(=O)c2ccccc2)cc1 | > 100 µM |  |
| Cc1nc2ccc(NCCN(C)C)c3c(=O)c4cc(O)ccc4n1c23 | 6.72 µM |  |
| N#CC(=S)Nc1ccc(F)cc1 | > 100 µM |  |
| COc1cnnc2c(C)c(-c3ccccc3)nn12 | > 100 µM |  |
| CCCCC(=O)OC[n+]1ccc2c(C)c3[nH]c4ccc(OC)cc4c3c(C)c2c1 | 12.8 µM |  |
| NCC(=O)CCC(=O)O | > 100 µM | > 100 µM |
| Cc1ccc(C2(c3ccc(C)c(O)c3C)CCN(C)CC2)c(C)c1O | > 100 µM |  |
| CC(C)(C)OC(=O)NCCNC(=O)CN(CC(=O)O)C1CCCCC1N(CC(=O)O)CC(=O)O (stereo unspecified) | > 100 µM |  |

| Structure (SMILES) | TGI | GI50 |
| --- | --- | --- |
| O=C1C=C(NCCc2cc(Br)c(O)c(Br)c2)C(=O)c2[nH]cnc21 | > 100 µM |  |
| CC(C)C(/C=C/c1ccccc1)=N\NC(=S)NN | > 100 µM |  |
| CN(C)CCNC(=O)c1cccc2c1nc(-c1ccccn1)c1ccccc12 | 40.1 µM |  |
| CC(C)C[C@H](NC(=O)[C@H](CCc1ccccc1)NC(=O)c1ccc2ccccc2n1)B(O)O | 12.5 µM |  |
| CCN1CCCCC(=N\O)/C(=N/O)CCCC1 | > 100 µM |  |
| Cn1c(=O)c2[nH]c(-n3nc(-c4ccccc4)cc3N)nc2n(C)c1=O | 38.2 µM |  |
| O=c1c(S(=O)(=O)Oc2ccccc2)coc2cc(F)ccc12 | > 100 µM |  |
| C=C(COC(=O)C(C)C)[C@H]1Oc2ccc(C(C)=O)cc2[C@@H]1OC(=O)C(C)C | > 100 µM |  |
| COC1=C(OC)C(=O)C(Cc2c(Cl)nc3n2CCS3)=C(C)C1=O | 30.6 µM |  |
| COc1ccc2sc3c(NCCCNCCO)nc4ccccc4c3c(=O)c2c1 | 3.19 µM | 1.65 µM |
| CCCCNCC(O)c1cc(-c2ccc(C(F)(F)F)cc2)nc(-c2ccc(C(F)(F)F)cc2)c1 (stereo unspecified) | 3.38 µM | 1.71 µM |
| C#CC#CC#CC#CC#CC#CC#CC#CCC1OC[C@H](COC(=O)O[C@@H](C(=O)O[C@H]2C[C@@]3(O)[C@@H](OC(=O)c4ccccc4)[C@@H]4[C@]5(OC(C)=O)CO[C@@H]5C[C@H](O)[C@@]4(C)C(=O)[C@H](OC(C)=O)C(=C2C)C3(C)C)[C@@H](NC(=O)c2ccccc2)c2ccccc2)O1 (stereo partly specified) | > 33.3 µM | 0.717 µM |
| O=c1c2cccnc2ncn1CCCN1CCOCC1 | > 100 µM |  |
| O=C(Nc1ccccc1F)c1ccc(NC2=C(Cl)C(=O)N(Cc3ccccc3)C2=O)cc1 | 29.3 µM | 15.9 µM |
| Cc1nn(C)c(=S)n(C)c1=O | > 100 µM |  |
| COc1c(Cl)c(Cl)c(OC)c2c1C(=O)C=CC2=O | > 100 µM |  |
| CCCCC#Cc1cccc(=O)o1 | > 100 µM | > 100 µM |
| CCOC(=O)C1=CN(C(=O)c2ccccc2)CCC1Cc1ccccc1 (stereo unspecified) | > 100 µM |  |
| C=CCC(C)(C(=O)NCCC)C(=O)c1ccccc1O (stereo unspecified) | > 100 µM |  |
| CC(C)(C)C(=O)OCC(COC(=O)C(C)(C)C)[N+](=O)[O-] | > 100 µM |  |
| COc1cc2c3c(n(CCCNCCN4CCOCC4)c(=O)c2cc1OC)-c1cc2c(cc1C3=O)OCO2 | 12.8 µM and 15.1 µM | 5.3 µM and 5.02 µM |
| O=C1C=C(Nc2nc(C(=O)O)cc(=O)[nH]2)c2ccccc2C1=O | > 100 µM |  |
| CC(=O)OC1=C2C(CC3C4CC=C5CC(OC(C)=O)CCC5(C)C4CCC23C)C2C(=O)N(Cc3ccccc3)C(=O)C2C1 (stereo unspecified) | > 100 µM | 25.9 µM |

Reference: PubChem BioAssay (NCI)
